US20250289788A1, “HALOALKYL SULFONANILIDE COMPOUND AND HERBICIDE CONTAINING THE SAME” (SDS BIOTECH K.K., priority 2022, published 2025)
Some entries share one result that the patent states for a list of compounds. At least one compound was matched to its structure with a doubt left.

What was measured:
Test in all cases: Test Example 1: herbicidal effect test using paddy field flooding treatment
Assay type in all cases: in vivo
Conditions in all cases: water surface application, 21 days after treatment
Ammannia multiflora (AM) = system: Ammannia multiflora (AM)
[1] = system: Monochoria vaginalis (MV)
[2] = system: Echinochloa crus-galli var. oryzicola (EC)
[3] = system: Schoenoplectiella juncoides (SJ)

Measured: herbicidal efficacy (degree (%) of suppression of growth of terrestrial part)

COC(=O)COC(=O)N(c1ccccc1CN1CCc2c(F)ccc(F)c2C1=O)S(=O)(=O)C(F)(F)F [Compound 3-235]
≥ 80%: Ammannia multiflora (AM); dose 31 g a.i./ha | [1]; dose 63 g a.i./ha | [2]; dose 500 g a.i./ha

C=CC(=O)N(c1ccccc1CN1CCc2c(F)ccc(F)c2C1=O)S(=O)(=O)C(F)(F)F [Compound 3-115]
≥ 80%: Ammannia multiflora (AM); dose 16 g a.i./ha | [1]; dose 125 g a.i./ha | [2]; dose 500 g a.i./ha

CC1CC1C(=O)N(c1ccccc1CN1CCc2c(F)ccc(F)c2C1=O)S(=O)(=O)C(F)(F)F (stereo not drawn) [Compound 3-109]
≥ 80%: Ammannia multiflora (AM); dose 16 g a.i./ha | [1]; dose 31 g a.i./ha | [2]; dose 125 g a.i./ha

CCOC(=O)N(c1ccccc1CN1C(=O)Cc2ccccc21)S(=O)(=O)C(F)(F)F [Compound 8-7, N-[2-(N-ethoxycarbonyl-N-trifluoromethanesulfonyl)aminobenzyl]-1,3-dihydroindol-2-one]
≥ 80%: Ammannia multiflora (AM); dose 125 g a.i./ha | [1]; dose 250 g a.i./ha | [2]; dose 500 g a.i./ha

O=C1c2c(F)ccc(F)c2CCN1Cc1ccccc1N(C(=O)C1CCCC1)S(=O)(=O)C(F)(F)F [Compound 3-113]
≥ 80%: Ammannia multiflora (AM); dose 16 g a.i./ha | [1]; dose 63 g a.i./ha | [2]; dose 250 g a.i./ha

CC(=O)N(c1ccccc1CN1CCc2c(F)ccc(F)c2C1=O)S(=O)(=O)C(F)(F)F [Compound 3-97]
≥ 80%: Ammannia multiflora (AM); dose 16 g a.i./ha | [1]; dose 63 g a.i./ha | [2]; dose 250 g a.i./ha

O=C1c2c(F)ccc(F)c2CCN1Cc1ccccc1N(C(=O)OCC1CCOC1)S(=O)(=O)C(F)(F)F (stereo not drawn) [Compound 3-221]
≥ 80%: Ammannia multiflora (AM); dose 16 g a.i./ha | [1]; dose 250 g a.i./ha | [2]; dose 500 g a.i./ha

CC(=O)OCCOC(=O)N(c1ccccc1CN1CCc2c(F)ccc(F)c2C1=O)S(=O)(=O)C(F)(F)F [Compound 3-232]
≥ 80%: Ammannia multiflora (AM); dose 16 g a.i./ha | [1]; dose 16 g a.i./ha | [2]; dose 500 g a.i./ha

CSc1ccc(SC)c2c1CCN(Cc1ccccc1NS(=O)(=O)C(F)(F)F)C2=O [Compound 3-78]
≥ 80%: Ammannia multiflora (AM); dose 31 g a.i./ha | [1]; dose 63 g a.i./ha | [3]; dose 500 g a.i./ha

O=C1c2c(Br)cccc2CN1Cc1ccccc1NS(=O)(=O)C(F)(F)F [Compound 2-4]
≥ 80%: Ammannia multiflora (AM); dose 63 g a.i./ha | [1]; dose 500 g a.i./ha | [3]; dose 250 g a.i./ha

O=C1c2c(F)ccc(F)c2CCN1Cc1ccccc1N(C(=O)C1CCOC1)S(=O)(=O)C(F)(F)F (stereo not drawn) [Compound 3-126]
≥ 80%: Ammannia multiflora (AM); dose 16 g a.i./ha | [1]; dose 250 g a.i./ha | [3]; dose 63 g a.i./ha

COc1ccc2c(c1)C(=O)N(Cc1ccccc1NS(=O)(=O)C(F)(F)F)CC2 [Compound 3-30]
≥ 80%: Ammannia multiflora (AM); dose 63 g a.i./ha | [1]; dose 250 g a.i./ha | [3]; dose 125 g a.i./ha

O=C1Cc2cc(F)ccc2N1Cc1ccccc1NS(=O)(=O)C(F)(F)F [Compound 8-2]
≥ 80%: Ammannia multiflora (AM); dose 250 g a.i./ha | [1]; dose 250 g a.i./ha | [3]; dose 500 g a.i./ha

COc1ccc2c(c1)C(=O)N(Cc1ccccc1NS(=O)(=O)C(F)(F)F)C2 [Compound 2-34]
≥ 80%: Ammannia multiflora (AM); dose 125 g a.i./ha | [1]; dose 125 g a.i./ha | [3]; dose 250 g a.i./ha

O=C1c2c(cccc2OS(=O)(=O)C(F)(F)F)CCN1Cc1ccccc1NS(=O)(=O)C(F)(F)F [Compound 3-15]
≥ 80%: Ammannia multiflora (AM); dose 63 g a.i./ha | [1]; dose 250 g a.i./ha | [3]; dose 250 g a.i./ha

COc1ccc(CN2CCc3ccccc3C2=O)c(NS(=O)(=O)C(F)(F)F)c1 [Compound 4-3]
≥ 80%: Ammannia multiflora (AM); dose 250 g a.i./ha | [1]; dose 500 g a.i./ha | [3]; dose 500 g a.i./ha
